Among the data in paper PMC10668032 are binding signal values, retold here.

The other results are listed elsewhere or left out. At the low end of the ranking, values are background and their order means little.

The experiment addresses SIX1 homeodomain (reference allele) (UniProt Q15475). The experiment in a line: universal protein binding microarray. Particulars: Universal all-10-mer PBM (8x60K, AMADID 030236), 300 nM GST-tagged protein, Alexa Fluor 488 anti-GST; buffer, salt, pH and temperature not stated; high values mean tight binding; most listed sequences are background and not binding sites; double strand, one strand shown.
Regarding AATGATAT, the binding signal is 0.44 E-score.

Consider ACTAATCA, for which the binding signal was -0.0219 E-score.

GTTAACGA: the binding signal was -0.116 E-score.

With AACTAGGT, the binding signal amounted to 0.123 E-score.

As for CGAAGGTC, the binding signal is -0.256 E-score.

On to GCGTTAAA, for which the binding signal was -0.168 E-score.

Take CACGCATA: the binding signal was -0.00632 E-score.

In the case of CCTCATGC, the binding signal was -0.0553 E-score.

Consider AGGACTCG, for which the binding signal is -0.0797 E-score.

As for CGATTAGA, the binding signal is 0.205 E-score.

In the case of GCCACCTA, the binding signal is -0.219 E-score.

As for GCAGAAGA, the binding signal is -0.123 E-score.

For CGCGAGCC, the binding signal was -0.0245 E-score.

Take AAGTGTCT: the binding signal amounted to 0.0365 E-score.

For CTATCAGC, the binding signal turned out to be 0.202 E-score.

As for AAAAAAGT, the binding signal is -0.167 E-score.

Regarding AGTGGAAT, the binding signal was -0.0303 E-score.

With GGAGTTGA, the binding signal is 0.00327 E-score.

For ACTTAGTA, the binding signal was -0.0138 E-score.

With CATTTCAC, the binding signal was -0.194 E-score.

Consider ATCAATGA, for which the binding signal amounted to 0.144 E-score.

In the case of GCCGCGCA, the binding signal was -0.167 E-score.

For GCTGCCTA, the binding signal was -0.0964 E-score.

Consider CCACATAG, for which the binding signal was -0.0737 E-score.

Regarding CGATTGCA, the binding signal was -0.108 E-score.

Regarding GACTAAGC, the binding signal was -0.296 E-score.

On to AGTGATCC, for which the binding signal turned out to be 0.452 E-score.

On to CGAGTCTA, for which the binding signal was -0.136 E-score.

As to ATCCAACC, the binding signal is 0.173 E-score.

AGAAACGA: the binding signal is -0.112 E-score.

On to TCAGACGA, for which the binding signal was determined as 0.0458 E-score.

For the sequence ATAGGCCA, the binding signal was -0.082 E-score.

As to GCACTCAC, the binding signal was -0.151 E-score.

In the case of AGTACATC, the binding signal is -0.0814 E-score.

Regarding ACGTCCTC, the binding signal is -0.13 E-score.

Consider CGCCAAAA, for which the binding signal is -0.0243 E-score.

As to AACGTGAA, the binding signal is -0.203 E-score.

CCCCTTGC: the binding signal came to 0.0175 E-score.

Turning to CTTCTGCA, the binding signal amounted to 0.112 E-score.

In the case of CACCCGTC, the binding signal turned out to be 0.0565 E-score.

For CGCGTACG, the binding signal was -0.0858 E-score.

On to GGTGAACC, for which the binding signal came out at 0.0678 E-score.

With CAGCACAC, the binding signal was -0.0935 E-score.

On to AATTACAG, for which the binding signal was -0.118 E-score.

Consider AAAGGGTA, for which the binding signal came out at 0.0288 E-score.

With AAGTCCTC, the binding signal is -0.213 E-score.

With CCAGGAGA, the binding signal turned out to be 0.158 E-score.

Take CCCGTGTA: the binding signal amounted to 0.171 E-score.

AAGCGGCT: the binding signal is -0.203 E-score.

Take AGAATCAA: the binding signal is 0.0512 E-score.

GTATTTAA: the binding signal was found to be 0.172 E-score.

GACCTGCA: the binding signal was -0.17 E-score.

Turning to ACTGTAAG, the binding signal was -0.00042 E-score.

For the sequence ATCACCCG, the binding signal came out at 0.397 E-score.

As to ACGTGCCG, the binding signal was -0.122 E-score.

Take GTAAGGTA: the binding signal stood at 0.0322 E-score.

Turning to CGGAGGAG, the binding signal amounted to 0.0602 E-score.

For ATCTCCAA, the binding signal stood at 0.142 E-score.

Turning to GATGGTGC, the binding signal is -0.197 E-score.

Take AACAGGTA: the binding signal came to 0.00503 E-score.

GTCCTCAC: the binding signal was -0.0408 E-score.

AGTGACGA: the binding signal was -0.0926 E-score.

With CCGAGCCG, the binding signal turned out to be 8.5e-05 E-score.

Regarding GACGTCCC, the binding signal is -0.164 E-score.

For ATATTTCC, the binding signal came out at 0.169 E-score.

With GGTTCGTA, the binding signal is -0.0075 E-score.

For the sequence CACTTACG, the binding signal was -0.0189 E-score.

Turning to TCGCAAAA, the binding signal is -0.163 E-score.

In the case of ATCGTTCA, the binding signal came to 0.118 E-score.

With ACCCTTAT, the binding signal stood at 0.0845 E-score.

For ACGTCGCA, the binding signal was -0.173 E-score.

On to GCTTGTGA, for which the binding signal is -0.222 E-score.

CAATTAGA: the binding signal stood at 0.136 E-score.

With GCGATCTA, the binding signal turned out to be 0.218 E-score.

With ACTAATGG, the binding signal was -0.12 E-score.

On to CGCTGTAC, for which the binding signal was -0.11 E-score.

Consider ATACCTCA, for which the binding signal was determined as 0.352 E-score.

On to ACACCACA, for which the binding signal turned out to be 0.328 E-score.

For ACTTAATC, the binding signal was determined as 0.0193 E-score.

In the case of CTCGCGAC, the binding signal is -0.0642 E-score.

On to GGAGTCTA, for which the binding signal is -0.086 E-score.

Turning to CACTACAC, the binding signal stood at 0.129 E-score.

Take CCAAGAAG: the binding signal is -0.0271 E-score.

On to CTGAGCTA, for which the binding signal is -0.084 E-score.

On to CGCTCGGC, for which the binding signal is -0.024 E-score.

As for GGGCCACA, the binding signal is -0.0276 E-score.

For CACAAGTG, the binding signal was -0.114 E-score.

As to GGCCAATA, the binding signal is -0.0372 E-score.

With TAGCCACA, the binding signal came to 0.0749 E-score.

Turning to CGTGACCA, the binding signal is -0.118 E-score.

In the case of CGGGAACA, the binding signal was -0.0886 E-score.

For the sequence GACGTGGC, the binding signal is -0.281 E-score.

As to ACGATCCA, the binding signal came to 0.284 E-score.

On to AACCAAGG, for which the binding signal is -0.173 E-score.

For the sequence AACTGCAC, the binding signal was -0.0828 E-score.

As to CATTTGCC, the binding signal is -0.205 E-score.

As for ACTCCACC, the binding signal was -0.0268 E-score.

Consider GCCTATAA, for which the binding signal came to 0.161 E-score.

For the sequence CAAAACGC, the binding signal was -0.288 E-score.

With CACTCATA, the binding signal amounted to 0.24 E-score.

Take ACCCTATG: the binding signal worked out at 0.0101 E-score.

For the sequence AACGGCAA, the binding signal was -0.272 E-score.

With ACAAACAC, the binding signal is -0.0276 E-score.

Consider CGATCACA, for which the binding signal is 0.273 E-score.

On to GTCCATAA, for which the binding signal was -0.139 E-score.

As to ACTTAGCT, the binding signal is -0.167 E-score.

Regarding AGGCGAAA, the binding signal is -0.14 E-score.

As for TCTTGGAA, the binding signal was determined as 0.0165 E-score.

Turning to ACCTGTCC, the binding signal is -0.139 E-score.
